Where a name gives a salt, the structure may show the parent alone. This is one part of the list. The data scatter; read single values as rough. Residues, ends and D or L forms follow the SMILES beside them.
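Further: High-content imaging of ALDEFLUOR-stained cells with Hoechst-labelled nuclei in 384-well plates, triplicate wells, scored as Z-score against 0.1% DMSO vehicle, negative meaning fewer ALDHbr cells.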

In this test the test system is MKN45. The test can be described thus: ALDHbr (CSC) cell proportion score relative to DMSO vehicle (ratio to DMSO); breast (SUM159) / gastric (MKN45) / pancreatic (PANC1) / colon cancer lines; ALDHbr cells have high ALDH activity and are rich in cancer stem cells (CSC); higher = more CSC (ALDHbr) cells remaining. The conditions noted are these: 10 µM; 72 h.
On to `CCN(CC)CCNC(C(=O)OCCC(C)C)c1ccccc1` (stereo not given) [Camylofine chlorhydrate], for which the ALDHbr amounted to 0.938. Consider `CC(=O)OCC(=O)[C@@]1(O)CC[C@H]2[C@@H]3CCC4=CC(=O)CC[C@]4(C)[C@@]3(F)[C@@H](O)C[C@@]21C` [Fludrocortisone acetate], for which the ALDHbr stood at 1.1.

With `CC(C(=O)O)c1ccc(N2Cc3ccccc3C2=O)cc1` (stereo not given) [Indoprofen], the ALDHbr is 0.99. With `O=C1CN2Cc3c(ccc(Cl)c3Cl)N=C2N1` [Anagrelide], the ALDHbr came out at 0.898.

In the case of `CC(C)(C)NC[C@H](O)COc1cccc2c1CCCC2=O` [(-) -Levobunolol hydrochloride], the ALDHbr was 0.929.

With `CCCc1nc(C)c2c(=O)nc(-c3cc(S(=O)(=O)N4CCN(CC)CC4)ccc3OCC)[nH]n12` [Vardenafil], the ALDHbr was determined as 0.7. The same measure for `CC1(C)O[C@@H]2C[C@H]3[C@@H]4CCC5=CC(=O)C=C[C@]5(C)[C@H]4[C@@H](O)C[C@]3(C)[C@]2(C(=O)CO)O1` [Desonide]: 0.828; for `CNCCCC12CCC(c3ccccc31)c1ccccc12` [Maprotiline hydrochloride]: 1.03. `CNc1ncnc2c1ncn2[C@@H]1O[C@H](CO)[C@@H](O)[C@H]1O` [N6-methyladenosine]: the ALDHbr was determined as 0.981. Next, `C=CCOc1ccccc1OCC(O)CNC(C)C` (stereo not given) [Oxprenolol hydrochloride]: 0.928; `NS(=O)(=O)c1cc2c(cc1Cl)N=CNS2(=O)=O` [Chlorothiazide]: 0.838. Consider `Cc1nc(=O)c2cc(CN(C)c3ccc(C(=O)N[C@@H](CCC(=O)O)C(=O)O)s3)ccc2[nH]1` [Raltitrexed], for which the ALDHbr was 0.239. As for `NC12CC3CC(CC(C3)C1)C2` [Adamantamine fumarate], the ALDHbr stood at 1.15. The same measure for `CCN(CCO)CCCC(C)Nc1ccnc2cc(Cl)ccc12` (stereo not given) [Hydroxychloroquine sulfate]: 1; for `COc1ccc(C(Cl)=C(c2ccc(OC)cc2)c2ccc(OC)cc2)cc1` [Chlorotrianisene]: 0.463.

`CC(C)Oc1ccc2c(=O)c(-c3ccccc3)coc2c1` [Ipriflavone]: the ALDHbr was found to be 0.382. Next, `C(=C\c1ccccc1)/CN1CCN(C(c2ccccc2)c2ccccc2)CC1` [Cinnarizine]: 0.757. Next, `CCC(C)(C)c1ccc(CC(C)CN2C[C@@H](C)O[C@@H](C)C2)cc1` (stereo not given in full) [Amorolfine hydrochloride]: 0.683. The same measure for `CCC(=O)OCC(=O)[C@@]1(OC(=O)CC)[C@H](C)C[C@H]2[C@H]3[C@H]([C@@H](O)C[C@@]21C)[C@@]1(C)C=CC(=O)C=C1C[C@H]3Cl` [Alclometasone dipropionate]: 1.03; for `CC1(C)S[C@@H]2[C@H](NC(=O)[C@H](N)c3ccccc3)C(=O)N2[C@H]1C(=O)O` [Ampicillin trihydrate]: 0.953; for `CCC1NC(=O)c2cc(S(N)(=O)=O)c(Cl)cc2N1` (stereo not given) [Quinethazone]: 0.913.

In the case of `CC(=O)N[C@@H](CC(=O)O)C(=O)N[C@@H](CCC(=O)O)C(=O)O` [Spaglumic acid] (Ac-Asp-Glu-OH), the ALDHbr was 1.32. Regarding `C#C[C@]1(O)CC[C@H]2[C@@H]3CCC4=CC(=O)CC[C@@H]4[C@H]3CC[C@@]21CC` [Norgestrel-(-)-D], the ALDHbr was 0.682. Regarding `CCN(CC)CCOC(=O)C1(C2CCCCC2)CCCCC1` [Dicyclomine hydrochloride], the ALDHbr stood at 0.948. The same measure for `Cc1ccc(-c2cc(C(F)(F)F)nn2-c2ccc(S(N)(=O)=O)cc2)cc1` [Celecoxib]: 0.454. In the case of `C#C[C@]1(O)CC[C@H]2[C@@H]3CCC4=C(CCC(=O)C4)[C@H]3CC[C@@]21C` [Norethynodrel], the ALDHbr stood at 0.653.

Consider `C[C@H](CCC(=O)O)[C@H]1CC[C@H]2[C@@H]3CC[C@@H]4C[C@H](O)CC[C@]4(C)[C@H]3CC[C@]12C` [Lithocholic acid], for which the ALDHbr came to 1.31. As for `O=C(c1ccc(OCCN2CCCCC2)cc1)c1c(-c2ccc(O)cc2)sc2cc(O)ccc12` [Raloxifene hydrochloride], the ALDHbr came to 0.419.

Take `COCCc1ccc(OCC(O)CNC(C)C)cc1` (racemic) [Metoprolol-(+,-) (+)-tartrate salt]: the ALDHbr amounted to 0.9. For the molecule `CC(=O)[C@@]12O[C@](C)(c3ccccc3)O[C@@H]1C[C@H]1[C@@H]3CCC4=CC(=O)CC[C@]4(C)[C@H]3CC[C@@]12C` [Algestone acetophenide], the ALDHbr is 0.396. Consider `CC(=O)OCC(=O)[C@@]1(O)[C@H](C)C[C@H]2[C@@H]3CCC4=CC(=O)C=C[C@]4(C)[C@@]3(F)[C@@H](O)C[C@@]21C` [Dexamethasone acetate], for which the ALDHbr amounted to 0.901.

With `Cc1onc(-c2ccccc2Cl)c1C(=O)N[C@@H]1C(=O)N2[C@@H]1SC(C)(C)[C@@H]2C(=O)O` [Cloxacillin sodium salt], the ALDHbr worked out at 1.07.

For the molecule `CC(=O)N(CC(O)CO)c1c(I)c(C(=O)NCC(O)CO)c(I)c(C(=O)NCC(O)CO)c1I` (stereo not given) [Iohexol], the ALDHbr worked out at 1.01. Turning to `Cc1ccc(NC(=O)c2ccc(CN3CCN(C)CC3)cc2)cc1Nc1nccc(-c2cccnc2)n1` [Imatinib], the ALDHbr was 0.711. For `CCc1nc(N)nc(N)c1-c1ccc(Cl)cc1` [Pyrimethamine], the ALDHbr came out at 0.23. The same measure for `CNCC[C@@H](Oc1cccc2ccccc12)c1cccs1` [(R)-Duloxetine hydrochloride]: 1.3; for `COc1cnc(NS(=O)(=O)c2ccc(N)cc2)nc1` [Sulfameter]: 0.903; for `CNCCC=C1c2ccccc2CCc2ccccc21` [Nortriptyline hydrochloride]: 0.935.

Consider `CN(C)CCCN1c2ccccc2CCc2ccccc21` [Imipramine hydrochloride], for which the ALDHbr was found to be 1.04.

As for `O=C(O)c1ccccc1Nc1cccc(C(F)(F)F)c1` [Flufenamic acid], the ALDHbr is 1.21.
